From publication PMC4336329 (PLoS ONE, 2015)
The whole screen tested about 310,000 compounds, of which about 14,000 (4.5%) showed an effect of 50% or more. Effects have a minus sign here. The list shows a part of the results.

Each compound was assayed against human ether-à-go-go-related gene (hERG) potassium channel (human, UniProt Q12809) (assay: primary screen, population patch clamp on CHO cells stably expressing hERG).
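Also: peak tail current of the secondary pulse compared with the same well before compound.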

Chain of human ether-à-go-go-related gene (hERG) potassium channel (Q12809 whole entry, looked up): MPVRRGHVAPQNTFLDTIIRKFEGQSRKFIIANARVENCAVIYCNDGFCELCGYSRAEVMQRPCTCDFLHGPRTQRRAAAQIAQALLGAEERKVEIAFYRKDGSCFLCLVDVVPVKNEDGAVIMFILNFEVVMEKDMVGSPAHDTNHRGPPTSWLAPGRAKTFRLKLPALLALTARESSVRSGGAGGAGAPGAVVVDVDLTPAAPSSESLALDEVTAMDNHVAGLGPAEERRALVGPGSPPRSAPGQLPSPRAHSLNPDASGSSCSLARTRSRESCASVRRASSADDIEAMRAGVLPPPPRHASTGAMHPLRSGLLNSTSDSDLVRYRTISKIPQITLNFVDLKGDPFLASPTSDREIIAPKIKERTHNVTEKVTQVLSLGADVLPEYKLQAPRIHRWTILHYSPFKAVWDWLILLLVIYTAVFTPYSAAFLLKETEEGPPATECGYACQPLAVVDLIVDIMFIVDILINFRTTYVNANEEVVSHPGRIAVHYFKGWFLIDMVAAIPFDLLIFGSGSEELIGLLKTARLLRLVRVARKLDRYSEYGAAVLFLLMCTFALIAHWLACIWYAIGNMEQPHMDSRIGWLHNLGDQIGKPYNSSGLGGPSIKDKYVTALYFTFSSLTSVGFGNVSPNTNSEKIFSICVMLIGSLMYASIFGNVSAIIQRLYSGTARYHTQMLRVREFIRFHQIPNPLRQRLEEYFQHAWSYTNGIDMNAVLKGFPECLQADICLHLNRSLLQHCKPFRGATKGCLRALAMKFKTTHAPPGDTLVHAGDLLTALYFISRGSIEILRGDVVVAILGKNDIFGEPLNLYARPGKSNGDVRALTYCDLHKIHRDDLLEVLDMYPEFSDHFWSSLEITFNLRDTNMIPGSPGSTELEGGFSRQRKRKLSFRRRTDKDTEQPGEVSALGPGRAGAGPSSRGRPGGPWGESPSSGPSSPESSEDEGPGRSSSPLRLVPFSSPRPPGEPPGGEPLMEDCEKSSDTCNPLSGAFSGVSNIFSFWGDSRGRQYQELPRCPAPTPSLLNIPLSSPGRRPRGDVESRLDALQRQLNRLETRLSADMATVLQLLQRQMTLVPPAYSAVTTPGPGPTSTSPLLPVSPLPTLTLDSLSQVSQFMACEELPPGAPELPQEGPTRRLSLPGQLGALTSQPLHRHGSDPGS

Structure (SMILES)	hERG current change (%, negative = inhibition) at 10uM [%]
CC(C)(C)OC(=O)n1cc(C(=O)c2ccccc2O)cn1	6.6
CCc1ccc(N2C(=O)NC(=O)/C(=C\c3cccn3CCOc3ccc(C(C)C)cc3)C2=O)cc1	9.69
COc1ccc(NC(=S)N2CCN(C/C=C/c3ccccc3)CC2)cc1OC	-19.4
N#Cc1ccccc1NC(=O)CN1CCN(Cc2ccccc2)CC1	-60.1
Cc1cccc(C(=O)Nc2nnc(-c3ccco3)o2)c1	5.64
CN(C)CCn1cnc2c1c(=O)[nH]c(=O)n2Cc1ccccc1.Cl	27.6
Cc1ccc2nc(NC(=O)[C@H](C)N3C(=O)C4CC=CCC4C3=O)sc2c1 (stereo partly shown)	9.6
CC(=O)Nc1ccc2c(c1)OCO2	15.8
Oc1ccc(Br)cc1C1Nc2ccccc2S1 (stereo not shown)	21.7
CSc1nc(C)c2c(n1)N(c1ccc(F)cc1)CC2	19.8
Cc1cccc(Cc2nnc(CCC(=O)NCc3ccncc3C)o2)c1	1.49
CS(=O)(=O)N1CCc2cc(C(=O)N3CCCC3)ccc21	11.7
COc1ccc2c(c1)c(C(=O)N/N=C/c1cccs1)c(C)n2C	-9.05
O=C(CO/N=C/c1ccccc1O)NNC(=O)c1ccccc1Cl	12.3
Cn1c(=O)c2cnc(-c3ccc(C(F)(F)F)cc3)nc2n(C)c1=O	25.7
COc1ccc(NC(=O)C(C)N(C)Cc2ccc3ccccc3c2)cc1 (stereo not shown)	-25
CCc1ccc(-c2nc(CS(=O)CC(=O)O)c(C)o2)cc1 (stereo not shown)	-8.03
Cc1cccc(N2CCN(C(=O)c3ccnn3C)CC2)c1C	7.15
NC(=O)NC(=O)COC(=O)CNS(=O)(=O)c1ccc(F)c(F)c1F	13.3
CC(=O)NS(=O)(=O)c1ccc(NC(=O)c2cc3c(=O)n4ccccc4nc3s2)cc1	-1.79
O=C(CCN1C(=O)/C(=C/c2ccc(F)cc2)SC1=S)NNC(=O)c1ccncc1	19.6
O=C(C[n+]1ccccc1)Nc1ccccc1C(=O)O.[Cl-]	0.4
C/C(=N\NC(=O)c1ccc(Cl)cc1)c1ccccn1	2.27
CCc1cc(=O)oc2cc(C)cc(OCC(=O)NCCN3CCOCC3)c12	12.3
Cc1ccc(Nc2nc(Oc3ccc(=O)[nH]n3)nc(N(C)C)n2)cc1	-6.87
O=C(O)c1cccc(S(=O)(=O)N2CC=C(c3ccccc3)CC2)c1	-4.64
COc1ccc(CCN(C)C(=O)CNC(=O)Cc2cccc3ccccc23)cc1OC	-1.9
N#C/C(=C\c1cccnc1)C(=O)NC1CCCCC1	1.59

Structure (SMILES)	hERG current change (%, negative = inhibition) at 10uM [%]
O=S(=O)(c1cccs1)n1nnc2ccccc21	19.3
Cc1c(N=Cc2ccc(-c3ccc(Cl)cc3)o2)c(=O)n(-c2ccccc2)n1C	-15.3
CCC1CCCCN1C(=O)COc1ccc(N(C)S(=O)(=O)c2ccc(C)cc2)cc1 (stereo not shown)	-40.3
O=C(CSc1nc(-c2ccccc2)cs1)N1CCc2ccccc21	3.61
COc1ccc(Nc2oc(-c3ccccc3)nc2C#N)cc1	18.1
Cc1cc(C)cc(N(C(=O)Cc2cccs2)C(C(=O)NC2CCCC2)c2ccc(C)o2)c1 (stereo not shown)	2.77
COc1ccc(CCNC(=O)CN(C)S(=O)(=O)c2ccc3c(c2)CCC(=O)N3)cc1OC	1.09
COc1cc(/C=C2\SC(=S)N(N3CCOCC3)C2=O)cc(OC)c1OC	3.1
CC1(C)C(CO)=CC(=O)C2=C1SCC(=O)N2	-16.3
COc1ccc(OC)c(NC(=O)C2CCCN(S(=O)(=O)c3cccc4cccnc34)C2)c1 (stereo not shown)	-4.01
COc1ccccc1C1NC(=O)NC(C)=C1C(=O)Nc1cccc(C)c1C (stereo not shown)	20.2
O=C(COC(=O)C1CCN(S(=O)(=O)c2ccccc2C(F)(F)F)CC1)NCc1ccc(F)cc1	-8.33
COc1cccc(CN2CCN(C3CCN(c4ccccc4C)CC3)CC2CCO)c1 (stereo not shown)	-66.2
COc1ccc2ccccc2c1/C=N/NC(=O)c1ccccc1F	-20.3
Cc1ccc(OC(=O)CCC(=O)Nc2ccc(S(=O)(=O)Nc3cc(C)on3)cc2)cc1	0.482
Cc1cc(C)c(NC(=O)CS(=O)CC(=O)Nc2ccc(-n3cnnn3)c(C)c2)c(C)c1 (stereo not shown)	24.1
CCCCOCC1CN(c2ccccc2)C(=O)CS1 (stereo not shown)	5.11
CCn1c(COc2cccc(C)c2C)nnc1SCC(=O)Nc1cc(C)on1	19.1
N#Cc1c(N2CCCCC2)nc(N)c2c(N)nc3c(c12)CC(c1ccccc1)O3 (stereo not shown)	0.369
Cc1cc(=O)[nH]c(N2CCN(C(=O)c3ccco3)CC2)n1	14
CC1N(C)c2cc(NC(=O)c3ccco3)c(P(=O)(Nc3ccc([N+](=O)[O-])cc3)N3CCOCC3)cc2C1(C)C (stereo not shown)	-56
O=C(O)c1cc(NS(=O)(=O)c2ccc(NC3CCCCC3)c([N+](=O)[O-])c2)cc(C(=O)O)c1	15.7
CCOc1ccc(N(CC(=O)NC(C)(C)C)S(=O)(=O)c2c(C)noc2C)cc1	-15.5
COc1ccc(CCNC(=S)NC(=O)c2cc(OC)c(OC)c(OC)c2)cc1OC	7.56
CCCn1c(CN2CCN(C(=O)c3ccco3)CC2)nc2c1c(=O)n(C)c(=O)n2C	-10.3
CCN(CC)C(=O)C1CCN(Cc2ccc(Br)cc2)CC1.O=C(O)C(=O)O	-51.4
Cl.c1ccc(Nc2c3c(nc4ccccc24)CCC3)cc1	-76.2
